Experimental data as given in publication PMC2902271 (Nature structural & molecular biology, 2009).

Biological target: the molecule itself
Test: SEC-MALS

B1: STIM1^CT (cytoplasmic region of human STIM1) (domain or fragment)
chain: not shown
With B1 the “stoichiometry N” value was 2.
